Reference: the RNAGym collection of RNA variant scans (doi:10.1093/nar/gkz1192)
Read counts are not given, so values of variants with three or more changes are uncertain.

B1: CPEB3 Ribozyme (parent)
chain: UAACAGGGGGCCACAGCAGAAGCGUUCACGUCGCAGCCCCUGUCAGAUUCUGGUGAAUCUGCGAAUUCUGCUGUAUAUCUC

Variants of: B1
Test: self-cleavage, relative activity (ratio to wild type); higher = more cleavage; in vitro, sequencing
Method in brief: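 Relative activity compares each variant's cleaved/total read fraction with that of the unmutated ribozyme. To get these fractions, barcoded CPEB3 ribozyme libraries from rounds of error-prone PCR were transcribed with T7 RNA polymerase for 5 hours at 37°C and then given 15 min of DNase I treatment before EDTA was added. The RNAs were reverse transcribed with template switching and sequenced on Illumina, and DNA sequencing linked barcodes to variants. A minimum of 5 reads applied, and three batches were averaged.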
With UAACAGGGGGCCUCAGCAGAAGCGUUCACGUCGCAGCCCCUGUCAGAUUCUGGUGAGUCUGCGAAUUCUGCUGUAUAUCCC [A13U A57G U80C] the self-cleavage was 1.09.
Work on UAACAGGGGGCCUCAGCAGAAGCGUUCACAUCGCAGCCCCUGUCAGAUUCUGGUGAAUCUGCGAAUUCUGCUGUGUAUCUC [A13U G30A A75G] yielded a self-cleavage of 0.07.
With UAACAGGGGGCCUCAGCAGAAGUGUUCACGUCGCAGCCCCUGUCAGAUUCUGGUGUACCUGCGAAUUCUGCUGUAUAUCUC [A13U C23U A56U U58C] the self-cleavage was 0.08.
In the case of UAACAGGGGGCCUCAGCAGAAGCGUUCACGUCGCAGCCCCUGUCAGAUUCUGGUGAAUCUGCGGAUACUGCUGUAUAUCUC [A13U A64G U67A], the self-cleavage is reported as 0.48.
In the case of UAACAGGGGGCCUCAGCAGAAGCGUUCACAUCUCAGCCCCUGUCAGAUUCUGGUGAAUCAGCGAAUUCUGCUGUAUAUCUC [A13U G30A G33U U60A], the self-cleavage is reported as 0.06.
In the case of UAACAGGGGGCCUCAGCAUAAGCGUUCACGUCGCAGCCCCCGUCAGAUUCUGGUGAAUCUGCGAAUUCUGCUACAUAUCUC [A13U G19U U41C G73A U74C], the self-cleavage is reported as 0.52.
UAACAGGGGGCCUCAGUAGAAGCGUUCACGUCGCAGCCCCUGUCAGAUUCUGGUGAAUCUGCGAAUUCUGCUGUACAUCUC [A13U C17U U76C] gave a self-cleavage of 0.69.
UAACAGGGGGCCUCAGCAGAAGUGUCCACGUCGCUGUCCCUGUCAGAUUCUGGUGGACCUGCGAAUUCUGCUGUAUAUCUC [A13U C23U U26C A35U C37U A56G U58C] gave a self-cleavage of 0.06.
Variant UAACAGGGGGCCUCAGCAGAAGCGUUCACGUCGCAGCCCCUGUCAGGUUCUGGUGAAUCUGCGAAUUCUGCUGAAUAUCUC [A13U A47G U74A] has a self-cleavage of 1.28.
In the case of UAACAGGGGGCCUCACCAGAAGCGUUCACGUCGCAGCCCCUGUCAGAAUCCGGUGAAUCUGCGAAUUCUGCUGUAUAUCUC [A13U G16C U48A U51C], the self-cleavage is reported as 0.06.
For UAACAGGGGGCCUCAGCAGAAGCGUUCACGUCGCAGCUCCUGUCAGAUUCUGGUGAAUCUGCGAGUUCUGCUGUAUAUCUC [A13U C38U A65G], the self-cleavage was 0.2.
With UAACAGGGGGCCUCAGCAGAAGCGUUCACGUCGCAGCUCCUGUCAGAUUCUGGCGAAUCUGCGAAUUCUGCUGUACGUCUC [A13U C38U U54C U76C A77G] the self-cleavage was 0.77.
In the case of UAACAGGGGGCCUCAGCAGAAACGUUCACGUCGCAGCCCCUGUCAGAUUCUGGUGAAUCUGCGAAUUCUGCAGUAUAUCUC [A13U G22A U72A], the self-cleavage is reported as 0.11.
For UAACAGGGGGCCUCAGCAGAAGCGUUCACGUCGCAGCCCCUAUCAGAUUCUGGUGAAUCUGCGAACUCUGCUGUAAAUCCC [A13U G42A U66C U76A U80C], the self-cleavage was 0.09.
Work on UAACAGGGGGCCUCAGCAGAAGCGUUCACGUCGCAGCCCCUGUCAGAUUCUGGUGGAUCUGCGAAUUCUGCUGUACAUCUC [A13U A56G U76C] yielded a self-cleavage of 1.04.
With UAACAGGGGGCCUCAGUGGGAGCGUUCACGCCGCAGCCCCUGUCAGAUUCUGGUGAAUCUGCGGAUUCUGCUGUAUAUCUC [A13U C17U A18G A20G U31C A64G] the self-cleavage was 0.08.
Variant UAACAGGGGGCCUCAGCAGAAACGCUCACGUCGUAGCCCCUGUCAGAUUCUGGUGAAUCUGCGAAUUCUGCUGUAUAUCUC [A13U G22A U25C C34U] has a self-cleavage of 0.31.
UAACAGGGGGCCUCAGCAGAAGCGUUAACGUCGCAGCCCCUGUCAGAUUCUGGUGAAUCUGCGAGUUCUGCUGGAUAACUC [A13U C27A A65G U74G U78A] showed a self-cleavage of 0.03.
For UAACAGGGGGCCUCAGCAGAAGCGUUCACGUCGCAGACCCUGUCAGAUUCUGGUGAGUCUGCGAAUUCUGCUGUAUAUCUC [A13U C37A A57G], the self-cleavage was 0.17.
Work on UAACAGGGGGCCUCAGCAGAAGCGUUCACGUCGCAGCCCCUGUCAGAUUCUGGUGAGUCUGCGAAUUCUGCUGUAUGUCUC [A13U A57G A77G] yielded a self-cleavage of 1.17.
Variant UAACAGGGGGCCUCAGGUGAAGCGAUCACGUCGCAGCCCCUGUCAGAUUCUGGUGAAUCUGCGAAUUCUGCAGUAUAUCUC [A13U C17G A18U U25A U72A] has a self-cleavage of 0.22.
In the case of UAACAGGGGGCCUCAGCAGAAGCGUUCACGUCGCAGCCCCUGUCAGAUUCUGGUGAAUCUGCGAAUUAUGCUGUAUAACUC [A13U C68A U78A], the self-cleavage is reported as 0.62.
Work on UAACAGGGGGCCUCAGCAGAAGCAUUCACGCCGCAGCCCCCGUCAGAUUCUGGUGAAUCUGCGAAUUCUGCUGUAUAUCUC [A13U G24A U31C U41C] yielded a self-cleavage of 0.12.
Work on UAACAGGGGGCCUCAGCAGAAGCGUUCACGUCGCAGCCCCUGUCAGAUUCUGGUGAAUCUGCGGAUUCACCUGUAUAUCGC [A13U A64G U69A G70C U80G] yielded a self-cleavage of 0.11.
In the case of UAACAGGGGGCCUCAGCAGAAGCGUUCACGUCUCAGCCCCUGUCGGAUUCUGGUGUAUCUGCGAAUUCUGCUGUAUAUCUC [A13U G33U A45G A56U], the self-cleavage is reported as 0.36.
With UAACAGGGGGCCUCAGCAGAAGCGUUCACGUCGCAGCCACUGUCAGUUUCUGGUGAAUCUGCGAGUUCUGCUGUAUAUCUC [A13U C39A A47U A65G] the self-cleavage was 0.16.
UAACAGGGGGCCUCAGCAGAAGCGUUCACGUCGCAGCCCCUGUCAGAUUCUGGUGGAUCCGCGAAUUCUGCUGUAUAACUC [A13U A56G U60C U78A] showed a self-cleavage of 0.62.
For UAACAGGGGGCCUCAGCAGAAGCGUUCACGUCGCAGCCCCUGUCAGUUUCUGGUGAAUCUGCGAAUUCAGCUGCAUAUCUA [A13U A47U U69A U74C C81A], the self-cleavage was 0.57.
For UAACAGGGGGCCUCAGAGGAAGCGUACACGUCGCAGCCCCUGUCAGACUCUGGUGAAUCUGCGAAUUCUACUAUAUAUCUC [A13U C17A A18G U26A U48C G70A G73A], the self-cleavage was 0.04.
Variant UAACAGGGGGCCUCAGCAGAAGCGUUCACGUCGCAGCCCCUGUCGGAUUCUGGUGAAUCCGCGGAUUCUGCUGUAUAUCUC [A13U A45G U60C A64G] has a self-cleavage of 1.13.
Work on UAACAGGGGGCCUCAGCAGAAGCGUUCACGUCGCAGCCCCUGUCUGAUUCUGGUGAAUCUGCGAAUUCUACUGUAUAUCUC [A13U A45U G70A] yielded a self-cleavage of 0.37.
With UAACAGGGGGCCUCAGCAGAAGCGUUCACGUCGCAGCCCCUGUCUGGUUCUGGUGAAUCUGCGAAUUCUACUGUAUGUCUC [A13U A45U A47G G70A A77G] the self-cleavage was 0.17.
UAACAGGGGGCCUCAGCAGAAGCGUUCACGUCGCAGCCCCUGUCAGAUUCUGGUGAUUCUGCGAAUCCUGCUGUAUACCUC [A13U A57U U67C U78C] gave a self-cleavage of 0.23.
With UAACAGGGGGCCUCAGCAGAAGCGUUCACGUCGCAGCCCCUGUCAGAUUUUAGUGAAUCUGCGGAUUCUGCUGUAUAUCUC [A13U C50U G52A A64G] the self-cleavage was 1.19.
